According to paper PMC7511960:
Results are given in words; binding and its absence hold for the method and conditions named. Binding seen in cells or lysates may run through a third protein. Some entries that bind do so weakly or less than the wild type. Sequences can lack the tags named with a protein.

Protein sequences, listed by entry. Tags and fused reporters are not part of them.
UniProt O95863: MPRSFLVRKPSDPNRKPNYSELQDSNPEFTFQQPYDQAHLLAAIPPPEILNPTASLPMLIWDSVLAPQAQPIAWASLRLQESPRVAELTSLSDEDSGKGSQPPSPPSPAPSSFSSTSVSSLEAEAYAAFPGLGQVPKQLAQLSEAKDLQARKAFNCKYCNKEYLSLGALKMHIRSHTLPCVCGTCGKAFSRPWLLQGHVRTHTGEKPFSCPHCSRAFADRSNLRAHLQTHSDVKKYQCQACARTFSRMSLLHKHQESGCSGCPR

Legend:
Flag-tagged Snail1 = Flag-tagged Snail1 (UniProt O95863); experiment: co-IP; HEK293T co-transfected; Flag-Snail1 immunoprecipitated and protein G-agarose, 4 h at 4 °C, Triton X-100 lysis buffer (50 mM Tris-HCl pH 7.4, 150 mM NaCl, 1 mM EDTA, 1% Triton X-100); blot for the GFP-tagged proteins
[1] = target: Flag-tagged Snail1, O95863; experiment: as above; settings: remark: other sources report otherwise

B1: GFP-USP29(USP), catalytic USP domain (amino acids 284-922) (domain or fragment, UniProt Q9HBJ7 284-922)
chain: QQGFPNLGNTCYMNAVLQSLFAIPSFADDLLTQGVPWEYIPFEALIMTLTQLLALKDFCSTKIKRELLGNVKKVISAVAEIFSGNMQNDAHEFLGQCLDQLKEDMEKLNATLNTGKECGDENSSPQMHVGSAATKVFVCPVVANFEFELQLSLICKACGHAVLKVEPNNYLSINLHQETKPLPLSIQNSLDLFFKEEELEYNCQMCKQKSCVARHTFSRLSRVLIIHLKRYSFNNAWLLVKNNEQVYIPKSLSLSSYCNESTKPPLPLSSSAPVGKCEVLEVSQEMISEINSPLTPSMKLTSESSDSLVLPVEPDKNADLQRFQRDCGDASQEQHQRDLENGSALESELVHFRDRAIGEKELPVADSLMDQGDISLPVMYEDGGKLISSPDTRLVEVHLQEVPQHPELQKYEKTNTFVEFNFDSVTESTNGFYDCKENRIPEGSQGMAEQLQQCIEESIIDEFLQQAPPPGVRKLDAQEHTEETLNQSTELRLQKADLNHLGALGSDNPGNKNILDAENTRGEAKELTRNVKMGDPLQAYRLISVVSHIGSSPNSGHYISDVYDFQKQAWFTYNDLCVSEISETKMQEARLHSGYIFFYMHNGIFEELLRKAENSRLPSTQAGVIPQGEYEGDSLYRPA
binding (Flag-tagged Snail1): binds

B2: GFP-USP28, Q96RU2 1-1077 (enzyme)
chain: MTAELQQDDAAGAADGHGSSCQMLLNQLREITGIQDPSFLHEALKASNGDITQAVSLLTDERVKEPSQDTVATEPSEVEGSAANKEVLAKVIDLTHDNKDDLQAAIALSLLESPKIQADGRDLNRMHEATSAETKRSKRKRCEVWGENPNPNDWRRVDGWPVGLKNVGNTCWFSAVIQSLFQLPEFRRLVLSYSLPQNVLENCRSHTEKRNIMFMQELQYLFALMMGSNRKFVDPSAALDLLKGAFRSSEEQQQDVSEFTHKLLDWLEDAFQLAVNVNSPRNKSENPMVQLFYGTFLTEGVREGKPFCNNETFGQYPLQVNGYRNLDECLEGAMVEGDVELLPSDHSVKYGQERWFTKLPPVLTFELSRFEFNQSLGQPEKIHNKLEFPQIIYMDRYMYRSKELIRNKRECIRKLKEEIKILQQKLERYVKYGSGPARFPLPDMLKYVIEFASTKPASESCPPESDTHMTLPLSSVHCSVSDQTSKESTSTESSSQDVESTFSSPEDSLPKSKPLTSSRSSMEMPSQPAPRTVTDEEINFVKTCLQRWRSEIEQDIQDLKTCIASTTQTIEQMYCDPLLRQVPYRLHAVLVHEGQANAGHYWAYIYNQPRQSWLKYNDISVTESSWEEVERDSYGGLRNVSAYCLMYINDKLPYFNAEAAPTESDQMSEVEALSVELKHYIQEDNWRFEQEVEEWEEEQSCKIPQMESSTNSSSQDYSTSQEPSVASSHGVRCLSSEHAVIVKEQTAQAIANTARAYEKSGVEAALSEVMLSPAMQGVILAIAKARQTFDRDGSEAGLIKAFHEEYSRLYQLAKETPTSHSDPRLQHVLVYFFQNEAPKRVVERTLLEQFADKNLSYDERSISIMKVAQAKLKEIGPDDMNMEEYKKWHEDYSLFRKVSVYLLTGLELYQKGKYQEALSYLVYAYQSNAALLMKGPRRGVKESVIALYRRKCLLELNAKAASLFETNDDHSVTEGINVMNELIIPCIHLIINNDISKDDLDAIEVMRNHWCSYLGQDIAENLQLCLGEFLPRLLDPSAEIIVLKEPPTIRPNSPYDLCSRFAAVMESIQGVSTVTVK
binding [1]: no binding
